Test results as given in the supplement of paper PMC10369915.
The list shows a part of the results. Cut-off read from the data, not from the text of the source: active = 3.2 or more and inactive = the rest. Most of these values are background signal.

Legend:
Experiment in all cases: enrichment score (SH2-bound / input frequency) (ratio); bacterial display of known human phosphotyrosine sites (pTyr-Var adds point mutants) read by sequencing; higher = stronger binding; tyrosines were phosphorylated by kinases first
Conditions in all cases: peptide library: pTyr-Var
SHP2 C-SH2 domain E139D = molecular target: SHP2 C-SH2 domain E139D
[1] = molecular target: SHP2 C-SH2 domain wild-type
SHP2 N-SH2 domain L43F = molecular target: SHP2 N-SH2 domain L43F
SHP2 N-SH2 domain T42A = molecular target: SHP2 N-SH2 domain T42A
SHP2 N-SH2 domain T52S = molecular target: SHP2 N-SH2 domain T52S
[2] = molecular target: SHP2 N-SH2 domain wild-type

Measured: enrichment score
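Note: displayed peptides selected on beads carrying the immobilized SH2 domain, with library peptides lacking any tyrosine serving as negative controls.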

PPAPRYHDSAV [LZTR1_Y119_H121D]
inactive: SHP2 C-SH2 domain E139D 0.437 | [1] 0.44 | SHP2 N-SH2 domain L43F 0.673 | SHP2 N-SH2 domain T42A 0.512 | SHP2 N-SH2 domain T52S 0.486 | [2] 0.652

PPAPRCHHSAV [LZTR1_Y119_Y119C]
inactive: SHP2 C-SH2 domain E139D 2.46 | [1] 2.48 | SHP2 N-SH2 domain L43F 2.24 | SHP2 N-SH2 domain T42A 2.32 | SHP2 N-SH2 domain T52S 2.4 | [2] 2.84

HYGNNYRDVLQ [MACC1_Y803]
inactive: SHP2 C-SH2 domain E139D 0.668 | [1] 0.83 | SHP2 N-SH2 domain L43F 0.542 | SHP2 N-SH2 domain T42A 0.618 | SHP2 N-SH2 domain T52S 0.872 | [2] 0.551

LAETSYVIVLE [MAGEA1_Y276_K278I]
inactive: SHP2 C-SH2 domain E139D 0.924 | [1] 1.94 | SHP2 N-SH2 domain L43F 1.1 | SHP2 N-SH2 domain T42A 1.7 | SHP2 N-SH2 domain T52S 0.794 | [2] 1.56

RRKRAYVEIEY [MAK16_Y282_Q277R]
inactive: SHP2 C-SH2 domain E139D 0.235 | [1] 0.202 | SHP2 N-SH2 domain L43F 0.0566 | SHP2 N-SH2 domain T42A 0.229 | SHP2 N-SH2 domain T52S 0.265 | [2] 0.165

RRKRAYVEIEF [MAK16_Y282_Q277R_YF]
inactive: SHP2 C-SH2 domain E139D 0.369 | [1] 0.199 | SHP2 N-SH2 domain L43F 0.328 | SHP2 N-SH2 domain T42A 0.248 | SHP2 N-SH2 domain T52S 0.261 | [2] 0.291

KVMANYVFKAG [MAML2_Y513_M514V_YF]
inactive: SHP2 C-SH2 domain E139D 1.25 | [1] 1.15 | SHP2 N-SH2 domain L43F 0.958 | SHP2 N-SH2 domain T42A 1 | SHP2 N-SH2 domain T52S 1.11 | [2] 1.15

SFGENYDNSKS [MAN1B1_Y60]
inactive: SHP2 C-SH2 domain E139D 0.618 | [1] 0.377 | SHP2 N-SH2 domain L43F 0.587 | SHP2 N-SH2 domain T42A 0.375 | SHP2 N-SH2 domain T52S 0.499 | [2] 0.522

HFECKYVINAI [MAOA_Y268_YF]
inactive: SHP2 C-SH2 domain E139D 1.08 | [1] 1.58 | SHP2 N-SH2 domain L43F 1.34 | SHP2 N-SH2 domain T42A 0.864 | SHP2 N-SH2 domain T52S 0.836 | [2] 1.84

TRFDEYLEVTK [MAP1A_Y2217_H2214Y_YF]
inactive: SHP2 C-SH2 domain E139D 0.831 | [1] 0.65 | SHP2 N-SH2 domain L43F 0.65 | SHP2 N-SH2 domain T42A 0.709 | SHP2 N-SH2 domain T52S 0.996 | [2] 0.674

GLGVTYEQALA [MAP2_Y996]
inactive: SHP2 C-SH2 domain E139D 0.711 | [1] 0.459 | SHP2 N-SH2 domain L43F 0.681 | SHP2 N-SH2 domain T42A 1.31 | SHP2 N-SH2 domain T52S 0.638 | [2] 0.526

FGISGYVVDSV [MAP2K3_Y214_L215V]
inactive: SHP2 C-SH2 domain E139D 1.24 | [1] 0.949 | SHP2 N-SH2 domain L43F 1.19 | SHP2 N-SH2 domain T42A 1.29 | SHP2 N-SH2 domain T52S 1.16 | [2] 1.24

QAIDEYEKWLE [MAP9_Y603_N601D]
inactive: SHP2 C-SH2 domain E139D 0.97 | [1] 0.565 | SHP2 N-SH2 domain L43F 0.642 | SHP2 N-SH2 domain T42A 0.74 | SHP2 N-SH2 domain T52S 0.746 | [2] 0.952

AEMTGYVMTRW [MAPK13_Y182_V184M]
inactive: SHP2 C-SH2 domain E139D 0.551 | [1] 0.537 | SHP2 N-SH2 domain L43F 0.381 | SHP2 N-SH2 domain T42A 0.421 | SHP2 N-SH2 domain T52S 0.384 | [2] 0.681

PVADRYDQSFE [MAPK14_Y323_P322R]
inactive: SHP2 C-SH2 domain E139D 0.484 | [1] 0.542 | SHP2 N-SH2 domain L43F 0.454 | SHP2 N-SH2 domain T42A 0.487 | SHP2 N-SH2 domain T52S 0.533 | [2] 0.668

WFKKFYDANCD [MAPRE2_Y158_Y162C]
inactive: SHP2 C-SH2 domain E139D 0.643 | [1] 0.599 | SHP2 N-SH2 domain L43F 0.531 | SHP2 N-SH2 domain T42A 0.602 | SHP2 N-SH2 domain T52S 0.62 | [2] 0.849

WFKKFYDANFD [MAPRE2_Y158_YF]
inactive: SHP2 C-SH2 domain E139D 0.8 | [1] 0.714 | SHP2 N-SH2 domain L43F 0.705 | SHP2 N-SH2 domain T42A 0.643 | SHP2 N-SH2 domain T52S 0.655 | [2] 0.896

FYDANCDGKEY [MAPRE2_Y162_Y162C]
inactive: SHP2 C-SH2 domain E139D 0.874 | [1] 0.762 | SHP2 N-SH2 domain L43F 0.818 | SHP2 N-SH2 domain T42A 0.492 | SHP2 N-SH2 domain T52S 0.712 | [2] 0.879

FFDANYDGKEF [MAPRE2_Y162_YF]
inactive: SHP2 C-SH2 domain E139D 0.886 | [1] 0.863 | SHP2 N-SH2 domain L43F 0.876 | SHP2 N-SH2 domain T42A 0.579 | SHP2 N-SH2 domain T52S 0.841 | [2] 0.734

CDGKEYDPVEA [MAPRE2_Y167_Y162C]
inactive: SHP2 C-SH2 domain E139D 0.6 | [1] 0.671 | SHP2 N-SH2 domain L43F 0.649 | SHP2 N-SH2 domain T42A 0.534 | SHP2 N-SH2 domain T52S 0.746 | [2] 0.793

FDGKEYDPVEA [MAPRE2_Y167_YF]
inactive: SHP2 C-SH2 domain E139D 1.06 | [1] 0.646 | SHP2 N-SH2 domain L43F 0.861 | SHP2 N-SH2 domain T42A 0.647 | SHP2 N-SH2 domain T52S 1.24 | [2] 0.737

DHAGMYGLGDR [MAPT_Y18_T17M]
inactive: SHP2 C-SH2 domain E139D 0.769 | [1] 0.628 | SHP2 N-SH2 domain L43F 0.5 | SHP2 N-SH2 domain T42A 0.603 | SHP2 N-SH2 domain T52S 0.635 | [2] 0.687

GAEIVYKSPVV [MAPT_Y711]
inactive: SHP2 C-SH2 domain E139D 0.741 | [1] 0.656 | SHP2 N-SH2 domain L43F 0.672 | SHP2 N-SH2 domain T42A 0.725 | SHP2 N-SH2 domain T52S 0.794 | [2] 0.524

RAEIVYKSPVV [MAPT_Y711_G706R]
inactive: SHP2 C-SH2 domain E139D 0.752 | [1] 0.747 | SHP2 N-SH2 domain L43F 0.675 | SHP2 N-SH2 domain T42A 0.95 | SHP2 N-SH2 domain T52S 0.827 | [2] 2.46

CEETFYTMKVN [MASP2_Y401]
inactive: SHP2 C-SH2 domain E139D 0.993 | [1] 0.944 | SHP2 N-SH2 domain L43F 1.18 | SHP2 N-SH2 domain T42A 0.919 | SHP2 N-SH2 domain T52S 0.962 | [2] 1.42

GSTLSYGRDGR [MATR3_Y158_P154S]
inactive: SHP2 C-SH2 domain E139D 0.598 | [1] 0.606 | SHP2 N-SH2 domain L43F 0.605 | SHP2 N-SH2 domain T42A 0.596 | SHP2 N-SH2 domain T52S 0.572 | [2] 1.08

YRIGPYQPNVP [MATR3_Y784]
inactive: SHP2 C-SH2 domain E139D 1.04 | [1] 1.01 | SHP2 N-SH2 domain L43F 1.01 | SHP2 N-SH2 domain T42A 0.914 | SHP2 N-SH2 domain T52S 0.847 | [2] 1.07

FRIGPYQPSVP [MATR3_Y784_N787S_YF]
inactive: SHP2 C-SH2 domain E139D 1.58 | [1] 1.19 | SHP2 N-SH2 domain L43F 1.63 | SHP2 N-SH2 domain T42A 1.68 | SHP2 N-SH2 domain T52S 1.76 | [2] 1.41

EVASVYQSYQP [MAVS_Y92]
inactive: SHP2 C-SH2 domain E139D 0.811 | [1] 0.673 | SHP2 N-SH2 domain L43F 0.705 | SHP2 N-SH2 domain T42A 0.443 | SHP2 N-SH2 domain T52S 0.768 | [2] 0.744

EVASVYESFQP [MAVS_Y92_Q93E_YF]
inactive: SHP2 C-SH2 domain E139D 0.859 | [1] 0.743 | SHP2 N-SH2 domain L43F 0.853 | SHP2 N-SH2 domain T42A 0.845 | SHP2 N-SH2 domain T52S 0.759 | [2] 1.11

DKATEYIQYVR [MAX_Y70_M74V]
inactive: SHP2 C-SH2 domain E139D 0.653 | [1] 0.921 | SHP2 N-SH2 domain L43F 0.787 | SHP2 N-SH2 domain T42A 0.787 | SHP2 N-SH2 domain T52S 0.812 | [2] 0.799

TEFSQYMRRKN [MAX_Y73_I71S_YF]
inactive: SHP2 C-SH2 domain E139D 0.167 | [1] 0.222 | SHP2 N-SH2 domain L43F 0.258 | SHP2 N-SH2 domain T42A 0.259 | SHP2 N-SH2 domain T52S 0.262 | [2] 0.296

SDGGCYEQLFV [MC4R_Y41]
inactive: SHP2 C-SH2 domain E139D 0.88 | [1] 0.809 | SHP2 N-SH2 domain L43F 0.79 | SHP2 N-SH2 domain T42A 0.704 | SHP2 N-SH2 domain T52S 0.718 | [2] 0.967

FDGGCYEQLFV [MC4R_Y41_S36Y_YF]
inactive: SHP2 C-SH2 domain E139D 1.25 | [1] 1.48 | SHP2 N-SH2 domain L43F 1.18 | SHP2 N-SH2 domain T42A 1.01 | SHP2 N-SH2 domain T52S 1.07 | [2] 1.62

QRTMKYTTATE [MCCC1_Y41_G46E]
inactive: SHP2 C-SH2 domain E139D 0.735 | [1] 0.52 | SHP2 N-SH2 domain L43F 0.903 | SHP2 N-SH2 domain T42A 0.6 | SHP2 N-SH2 domain T52S 0.573 | [2] 0.8

FGRTFYNQANM [MCCC2_Y196_I200N]
inactive: SHP2 C-SH2 domain E139D 0.785 | [1] 0.935 | SHP2 N-SH2 domain L43F 0.712 | SHP2 N-SH2 domain T42A 0.88 | SHP2 N-SH2 domain T52S 0.782 | [2] 1.57

KNNDGNIDYAE [MCFD2_Y135_Y135N]
inactive: SHP2 C-SH2 domain E139D 0.392 | [1] 0.43 | SHP2 N-SH2 domain L43F 0.382 | SHP2 N-SH2 domain T42A 0.448 | SHP2 N-SH2 domain T52S 0.536 | [2] 0.403
